In the antibiotic and cytotoxicity screens of Wong et al. (2023) one finds cytotoxicity call and growth inhibition call data, which are given here for 29 compounds.

In one assay the test system is HSkMC. Nature of the assay: cytotoxicity call (relative viability < 0.9). The conditions noted are these: 10 µM.
A further assay has as its system S. aureus RN4220. Nature of the assay: growth inhibition call (relative growth <= 0.2). Particulars: 50 µM.

Molecules are shown by their SMILES. The list shows a part of the results.

`Cn1c(=O)n2n(c1=O)[C@H](C1CC1)C=C1CN3[C@@H]([C@H](Cc4ccccc4)OC(=O)[C@@H]3Cc3ccc(-n4cc(CCC(=O)NO)nn4)cc3)[C@@H]12`: the cytotoxicity call with HSkMC is “inactive”. Further, the growth inhibition call with S. aureus RN4220 was “inactive”.

Regarding `O=C(C[C@@H]1C=C[C@@H](NS(=O)(=O)c2ccccc2)[C@@H](CO)O1)NCc1ccncn1`, the cytotoxicity call in the assay on HSkMC was “inactive”. In the assay with S. aureus RN4220, the growth inhibition call is “inactive”.

Take `C[C@@H]1CN([C@H](C)CO)C(=O)c2cccc(NS(=O)(=O)c3cn(C)cn3)c2O[C@@H]1CN(C)C(=O)Nc1ccc(F)cc1`: in the assay on HSkMC, the cytotoxicity call is “inactive”. Also, the growth inhibition call with S. aureus RN4220 was “inactive”.

Take `C[C@H](CO)N1C[C@H](C)[C@H](CN(C)Cc2ccc(-c3ccccc3)cc2)Oc2ccc(NC(=O)Cn3cnnn3)cc2C1=O`: the cytotoxicity call with HSkMC was “inactive”. Further, the growth inhibition call with S. aureus RN4220 is “inactive”.

Regarding `CC(=O)O[C@@H]1CC[C@@]2(C)[C@@H](CC[C@]3(C)[C@@H]2C(=O)C=C2[C@@H]4[C@@H](C)[C@H](C)CC[C@]4(C)CC[C@]23C)[C@@]1(C)C(=O)O`, the cytotoxicity call with HSkMC was “inactive”. For the same compound, in the assay on S. aureus RN4220, the growth inhibition call was “active”.

Regarding `CCCC(=O)Nc1ccc(-c2nc3cc(C(C)C)ccc3o2)cc1`, the cytotoxicity call with HSkMC was “inactive”. For the same compound, the growth inhibition call in the assay with S. aureus RN4220 was “inactive”.

As to `Cc1ccc(S(=O)(=O)N2C[C@@H](O)COC[C@H]3O[C@H](CC(=O)NCc4ccc(Cl)c(Cl)c4)CC[C@@H]32)cc1`, the cytotoxicity call in the assay with HSkMC was “inactive”. Besides, the growth inhibition call with S. aureus RN4220 was “inactive”.

On to `C[C@H](CO)N1C[C@H](C)[C@H](CN(C)C(=O)NC2CCCCC2)OCCCC[C@H](C)Oc2ccc(NC(=O)Nc3ccccc3)cc2C1=O`, for which the cytotoxicity call in the assay with HSkMC was “inactive”. Also, the growth inhibition call in the assay with S. aureus RN4220 is “inactive”.

With `Cc1ccc(S(=O)(=O)Nc2ccc3c(c2)C(=O)N([C@@H](C)CO)C[C@@H](C)[C@H](CN(C)C(=O)Cc2ccccc2)OCCCC[C@H](C)O3)cc1`, in the assay with HSkMC, the cytotoxicity call was “inactive”. The growth inhibition call in the assay with S. aureus RN4220 was “inactive”.

As for `C[C@@H]1CN([C@@H](C)CO)C(=O)c2c(c3ccccc3n2C)-c2ccccc2CO[C@H]1CN(C)C(=O)c1ccc(F)cc1`, the cytotoxicity call in the assay with HSkMC is “inactive”. Besides, the growth inhibition call in the assay with S. aureus RN4220 was “inactive”.

Regarding `C[C@H]1CN([C@@H](C)CO)C(=O)c2cc(NS(=O)(=O)c3ccccc3)ccc2O[C@@H]1CN(C)Cc1ccc(Cl)c(Cl)c1`, in the assay with HSkMC, the cytotoxicity call was “inactive”. The growth inhibition call in the assay with S. aureus RN4220 is “inactive”.

In the case of `COc1ccc(NC(=O)Nc2ccc3c(c2)C(=O)N([C@H](C)CO)C[C@H](C)[C@H](CN(C)C(=O)CCC(F)(F)F)OCCCC[C@H](C)O3)cc1`, the cytotoxicity call in the assay with HSkMC was “inactive”. In the assay on S. aureus RN4220, the growth inhibition call is “inactive”.

For the compound `C[C@@H]1CN([C@H](C)CO)C(=O)Cc2cc(NS(=O)(=O)c3cccs3)ccc2O[C@@H]1CN(C)S(=O)(=O)c1ccc(F)cc1`, the cytotoxicity call in the assay on HSkMC is “inactive”. Also, in the assay on S. aureus RN4220, the growth inhibition call is “inactive”.

Regarding `C[C@H]1CCCCO[C@H](CN(C)Cc2ccc(Cl)c(Cl)c2)[C@@H](C)CN([C@@H](C)CO)C(=O)c2cc(NC(=O)Nc3ccccc3)ccc2O1`, in the assay with HSkMC, the cytotoxicity call was “inactive”. Moreover, in the assay with S. aureus RN4220, the growth inhibition call was “inactive”.

As to `C[C@@H]1CN([C@H](C)CO)C(=O)c2cccc(NC(=O)Nc3ccc(F)cc3)c2O[C@H]1CN(C)CC1CCCCC1`, in the assay with HSkMC, the cytotoxicity call is “inactive”. In addition, the growth inhibition call in the assay with S. aureus RN4220 is “inactive”.

For `O=C(Nc1ccno1)NN1CCOCC1`, the cytotoxicity call in the assay with HSkMC was “inactive”. For the same compound, the growth inhibition call in the assay on S. aureus RN4220 is “inactive”.

Turning to `C[C@@H]1CN([C@H](C)CO)C(=O)c2cc(NS(C)(=O)=O)ccc2O[C@@H]1CN(C)C(=O)Nc1ccc(F)cc1`, the cytotoxicity call with HSkMC was “inactive”. For the same compound, the growth inhibition call with S. aureus RN4220 is “inactive”.

As to `O=C(C[C@@H]1C[C@H]2c3cc(NS(=O)(=O)c4ccc(F)cc4)ccc3O[C@H]2[C@@H](CO)O1)NCc1cccc(F)c1`, in the assay on HSkMC, the cytotoxicity call was “inactive”. Besides, the growth inhibition call with S. aureus RN4220 is “inactive”.

As for `C[C@H]1CN([C@@H](C)CO)C(=O)c2cc(NC(=O)Cc3cn(C)c4ccccc34)ccc2O[C@@H]1CN(C)S(C)(=O)=O`, the cytotoxicity call in the assay on HSkMC is “inactive”. Moreover, the growth inhibition call in the assay on S. aureus RN4220 was “inactive”.

For `COc1ccc(S(=O)(=O)Nc2ccc3c(c2)CC(=O)N([C@H](C)CO)C[C@@H](C)[C@@H](CN(C)C(=O)Nc2c(C)noc2C)O3)cc1`, in the assay with HSkMC, the cytotoxicity call is “inactive”. The growth inhibition call in the assay with S. aureus RN4220 is “inactive”.

Turning to `C[C@H](CO)N1C[C@H](C)[C@H](CN(C)C(=O)Nc2cccc3ccccc23)Oc2ncc(-c3cc4ccccc4o3)cc2C1=O`, the cytotoxicity call in the assay with HSkMC was “inactive”. Further, the growth inhibition call in the assay with S. aureus RN4220 was “inactive”.

On to `C[C@@H]1CN([C@H](C)CO)C(=O)c2cc(NS(=O)(=O)c3ccc(Cl)cc3)ccc2O[C@@H](C)CCCCO[C@@H]1CN(C)S(=O)(=O)c1cccs1`, for which the cytotoxicity call in the assay on HSkMC is “inactive”. Further, the growth inhibition call with S. aureus RN4220 was “inactive”.

As to `NC1CCC(N[C@@H]2C[C@H]2c2ccccc2)CC1` (stereo partly drawn), the cytotoxicity call in the assay on HSkMC was “inactive”. Moreover, the growth inhibition call in the assay on S. aureus RN4220 was “inactive”.

For the compound `COc1ccc(NC(=O)N(C)C[C@@H]2OCCCC[C@@H](C)Oc3ccc(NC(=O)c4ccccc4)cc3C(=O)N([C@@H](C)CO)C[C@@H]2C)cc1`, the cytotoxicity call in the assay on HSkMC is “inactive”. In the assay with S. aureus RN4220, the growth inhibition call is “inactive”.

As for `COCC1=C(C(=O)OC(C)OC(=O)OC(C)C)N2C(=O)C(NC(=O)C(=NOC)c3csc(N)n3)C2SC1` (stereo not drawn), the cytotoxicity call with HSkMC was “inactive”. Besides, in the assay with S. aureus RN4220, the growth inhibition call is “inactive”.

On to `C[C@@H]1CCCCO[C@@H](CN(C)Cc2ccc(C(F)(F)F)cc2)[C@H](C)CN([C@H](C)CO)C(=O)c2cc(NC(=O)c3ccccc3)ccc2O1`, for which, in the assay on HSkMC, the cytotoxicity call was “inactive”. The growth inhibition call in the assay on S. aureus RN4220 is “inactive”.

As for `CN(C)CC(=O)N1CC2(C1)[C@H](c1ccccc1)[C@H](CO)N2S(C)(=O)=O`, the cytotoxicity call in the assay on HSkMC is “inactive”. Further, the growth inhibition call in the assay on S. aureus RN4220 is “inactive”.

On to `C[C@H]1CCCCO[C@@H](CN(C)C(=O)Nc2cccc3ccccc23)[C@@H](C)CN([C@@H](C)CO)C(=O)c2cc(NC(=O)c3ccncc3)ccc2O1`, for which the cytotoxicity call in the assay on HSkMC (human skeletal muscle cells) is “inactive”. Moreover, the growth inhibition call in the assay with S. aureus RN4220 is “inactive”.

As to `O.O=C(O)C1C(O)CCC2CN3CCc4c([nH]c5ccccc45)C3CC21` (stereo not drawn), the cytotoxicity call in the assay with HSkMC is “inactive”. Also, the growth inhibition call in the assay on S. aureus RN4220 is “inactive”.
